{"source": "the supplement of paper PMC8728848", "assay_in_all_cases": "glycan array binding signal (z-score within array); higher = stronger binding", "conditions_in_all_cases": "glycan notation: IUPAC condensed, linker removed", "key": {"[1]": {"biological_target": "Fuc(a1-2)Gal", "outline": "(§1)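 Arrays were curated from the Consortium for Functional Glycomics database, 3228 in total, and kept only where the protein sequence was available. Binding is expressed as a within-array Z-score. This score was averaged across arrays of the same protein sequence at different concentrations or buffers and across linkers, and negative values can be read as non-binding.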"}, "[2]": {"biological_target": "Fuc(a1-2)Gal(b1-3)GalNAc", "outline": "as §1"}, "[3]": {"biological_target": "Fuc(a1-2)Gal(b1-3)GalNAc(a1-3)[Fuc(a1-2)]Gal(b1-4)Glc", "outline": "as §1"}, "[4]": {"biological_target": "Fuc(a1-2)Gal(b1-3)GalNAc(a1-3)[Fuc(a1-2)]Gal(b1-4)GlcNAc", "outline": "as §1"}, "[5]": {"biological_target": "Fuc(a1-2)Gal(b1-3)GalNAc(b1-3)Gal", "outline": "as §1"}, "[6]": {"biological_target": "Fuc(a1-2)Gal(b1-3)GalNAc(b1-3)Gal(a1-4)Gal(b1-4)Glc", "outline": "as §1"}, "[7]": {"biological_target": "Fuc(a1-2)Gal(b1-3)GalNAc(b1-4)[Neu5Ac(a2-3)]Gal(b1-4)Glc", "outline": "as §1"}, "[8]": {"biological_target": "Fuc(a1-2)Gal(b1-3)GlcNAc", "outline": "as §1"}, "[9]": {"biological_target": "Fuc(a1-2)Gal(b1-3)GlcNAc(b1-2)Man(a1-3)[Fuc(a1-2)Gal(b1-3)GlcNAc(b1-2)Man(a1-6)]Man(b1-4)GlcNAc(b1-4)GlcNAc", "outline": "as §1"}, "[10]": {"biological_target": "Fuc(a1-2)Gal(b1-3)GlcNAc(b1-3)Gal(b1-4)Glc", "outline": "as §1"}, "[11]": {"biological_target": "Fuc(a1-2)Gal(b1-3)GlcNAc(b1-3)[Fuc(a1-3)[Gal(b1-4)]GlcNAc(b1-6)]Gal(b1-4)Glc", "outline": "as §1"}, "[12]": {"biological_target": "Fuc(a1-2)Gal(b1-3)[Fuc(a1-4)]GlcNAc", "outline": "as §1"}, "[13]": {"biological_target": "Fuc(a1-2)Gal(b1-3)[Fuc(a1-4)]GlcNAc(b1-2)Man(a1-3)[Fuc(a1-2)Gal(b1-3)[Fuc(a1-4)]GlcNAc(b1-2)Man(a1-6)]Man(b1-4)GlcNAc(b1-4)GlcNAc", "outline": "as §1"}, "[14]": {"biological_target": "Fuc(a1-2)Gal(b1-3)[Fuc(a1-4)]GlcNAc(b1-3)[Fuc(a1-3)[Gal(b1-4)]GlcNAc(b1-6)]Gal(b1-4)Glc", "outline": "as §1"}, "[15]": {"biological_target": "Fuc(a1-2)Gal(b1-3)[Fuc(a1-4)]GlcNAc(b1-3)[Gal(b1-4)GlcNAc(b1-6)]Gal(b1-4)Glc", "outline": "as §1"}, "[16]": {"biological_target": "Fuc(a1-2)Gal(b1-4)Glc", "outline": "as §1"}, "[17]": {"biological_target": "Fuc(a1-2)Gal(b1-4)Glc6S", "outline": "as §1"}, "[18]": {"biological_target": "Fuc(a1-2)Gal(b1-4)GlcNAc", "outline": "as §1"}, "[19]": {"biological_target": "Fuc(a1-2)Gal(b1-4)GlcNAc(b1-2)Man(a1-3)[Fuc(a1-2)Gal(b1-4)GlcNAc(b1-2)Man(a1-6)]Man(b1-4)GlcNAc(b1-4)GlcNAc", "outline": "as §1"}, "[20]": {"biological_target": "Fuc(a1-2)Gal(b1-4)GlcNAc(b1-3)Gal(b1-4)GlcNAc", "outline": "as §1"}, "[21]": {"biological_target": "Fuc(a1-2)Gal(b1-4)GlcNAc(b1-3)Gal(b1-4)GlcNAc(b1-3)Gal(b1-4)GlcNAc", "outline": "as §1"}, "[22]": {"biological_target": "Fuc(a1-2)Gal(b1-4)GlcNAc(b1-3)GalNAc", "outline": "as §1"}, "[23]": {"biological_target": "Fuc(a1-2)Gal(b1-4)GlcNAc6S", "outline": "as §1"}, "[24]": {"biological_target": "Fuc(a1-2)Gal(b1-4)[Fuc(a1-3)]GlcNAc", "outline": "as §1"}, "[25]": {"biological_target": "Fuc(a1-2)Gal(b1-4)[Fuc(a1-3)]GlcNAc(b1-2)Man(a1-3)[Fuc(a1-2)Gal(b1-4)[Fuc(a1-3)]GlcNAc(b1-2)Man(a1-6)]Man(b1-4)GlcNAc(b1-4)GlcNAc", "outline": "as §1"}, "[26]": {"biological_target": "Fuc(a1-2)Gal(b1-4)[Fuc(a1-3)]GlcNAc(b1-3)Gal(b1-4)[Fuc(a1-3)]GlcNAc", "outline": "as §1"}, "[27]": {"biological_target": "Fuc(a1-2)Gal(b1-4)[Fuc(a1-3)]GlcNAc(b1-3)Gal(b1-4)[Fuc(a1-3)]GlcNAc(b1-3)Gal(b1-4)[Fuc(a1-3)]GlcNAc", "outline": "as §1"}, "[28]": {"biological_target": "Fuc(a1-2)Gal6S(b1-4)Glc", "outline": "as §1"}, "[29]": {"biological_target": "Fuc(a1-2)Gal6S(b1-4)Glc6S", "outline": "as §1"}, "[30]": {"biological_target": "Fuc(a1-2)Gal6S(b1-4)GlcNAc", "outline": "as §1"}, "[31]": {"biological_target": "Fuc(a1-2)[Gal(a1-3)]Gal", "outline": "as §1"}, "[32]": {"biological_target": "Fuc(a1-2)[Gal(a1-3)]Gal(b1-3)GlcNAc", "outline": "as §1"}, "[33]": {"biological_target": "Fuc(a1-2)[Gal(a1-3)]Gal(b1-3)GlcNAc(b1-2)Man(a1-3)[Fuc(a1-2)[Gal(a1-3)]Gal(b1-3)GlcNAc(b1-2)Man(a1-6)]Man(b1-4)GlcNAc(b1-4)GlcNAc", "outline": "as §1"}, "[34]": {"biological_target": "Fuc(a1-2)[Gal(a1-3)]Gal(b1-4)Glc", "outline": "as §1"}, "[35]": {"biological_target": "Fuc(a1-2)[Gal(a1-3)]Gal(b1-4)GlcNAc", "outline": "as §1"}, "[36]": {"biological_target": "Fuc(a1-2)[Gal(a1-3)]Gal(b1-4)GlcNAc(b1-2)Man(a1-3)[Fuc(a1-2)[Gal(a1-3)]Gal(b1-4)GlcNAc(b1-2)Man(a1-6)]Man(b1-4)GlcNAc(b1-4)GlcNAc", "outline": "as §1"}, "[37]": {"biological_target": "Fuc(a1-2)[Gal(a1-3)]Gal(b1-4)[Fuc(a1-3)]GlcNAc", "outline": "as §1"}, "[38]": {"biological_target": "Fuc(a1-2)[Gal(a1-4)]Gal(b1-4)GlcNAc", "outline": "as §1"}, "[39]": {"biological_target": "Fuc(a1-2)[GalNAc(a1-3)]Gal", "outline": "as §1"}, "[40]": {"biological_target": "Fuc(a1-2)[GalNAc(a1-3)]Gal(b1-3)GalNAc(a1-3)[Fuc(a1-2)]Gal(b1-4)GlcNAc", "outline": "as §1"}, "[41]": {"biological_target": "Fuc(a1-2)[GalNAc(a1-3)]Gal(b1-3)GlcNAc", "outline": "as §1"}, "[42]": {"biological_target": "Fuc(a1-2)[GalNAc(a1-3)]Gal(b1-3)GlcNAc(b1-2)Man(a1-3)[Fuc(a1-2)[GalNAc(a1-3)]Gal(b1-3)GlcNAc(b1-2)Man(a1-6)]Man(b1-4)GlcNAc(b1-4)GlcNAc", "outline": "as §1"}, "[43]": {"biological_target": "Fuc(a1-2)[GalNAc(a1-3)]Gal(b1-4)Glc", "outline": "as §1"}, "[44]": {"biological_target": "Fuc(a1-2)[GalNAc(a1-3)]Gal(b1-4)GlcNAc", "outline": "as §1"}, "[45]": {"biological_target": "Fuc(a1-2)[GalNAc(a1-3)]Gal(b1-4)GlcNAc(b1-2)Man(a1-3)[Fuc(a1-2)[GalNAc(a1-3)]Gal(b1-4)GlcNAc(b1-2)Man(a1-6)]Man(b1-4)GlcNAc(b1-4)GlcNAc", "outline": "as §1"}}, "note": "This is one part of the list."}
{"binder": "Ecp6 (Cladosporium fulvum), B3VBK9 (protein) MQSMILFAAALMGAAVNGFVLPRTDDPDCETKATDCGSTSNIKYTVVKGDTLTSIAKKFKSGICNIVSVNKLANPNLIELGATLIIPENCSNPDNKSCVSTPAEPTETCVPGLPGSYTIVSGDTLTNISQDFNITLDSLIAANTQIENPDAIDVGQIITVPVCPSSQCEAVGTYNIVAGDLFVDLAATYHTTIGQIKALNNNVNPSKLKVGQQIILPQDCKNVTTAVA", "values": [{"measurement": "glycan array binding signal (z-score)", "setting": "[1]", "value": -0.081}, {"measurement": "glycan array binding signal (z-score)", "setting": "[2]", "value": -0.084}, {"measurement": "glycan array binding signal (z-score)", "setting": "[3]", "value": -0.099}, {"measurement": "glycan array binding signal (z-score)", "setting": "[4]", "value": -0.099}, {"measurement": "glycan array binding signal (z-score)", "setting": "[5]", "value": -0.046}, {"measurement": "glycan array binding signal (z-score)", "setting": "[6]", "value": -0.104}, {"measurement": "glycan array binding signal (z-score)", "setting": "[7]", "value": -0.082}, {"measurement": "glycan array binding signal (z-score)", "setting": "[8]", "value": -0.087}, {"measurement": "glycan array binding signal (z-score)", "setting": "[9]", "value": -0.096}, {"measurement": "glycan array binding signal (z-score)", "setting": "[10]", "value": -0.104}, {"measurement": "glycan array binding signal (z-score)", "setting": "[11]", "value": -0.095}, {"measurement": "glycan array binding signal (z-score)", "setting": "[12]", "value": -0.071}, {"measurement": "glycan array binding signal (z-score)", "setting": "[13]", "value": -0.081}, {"measurement": "glycan array binding signal (z-score)", "setting": "[14]", "value": -0.096}, {"measurement": "glycan array binding signal (z-score)", "setting": "[15]", "value": -0.121}, {"measurement": "glycan array binding signal (z-score)", "setting": "[16]", "value": -0.09}, {"measurement": "glycan array binding signal (z-score)", "setting": "[17]", "value": -0.062}, {"measurement": "glycan array binding signal (z-score)", "setting": "[18]", "value": -0.086}, {"measurement": "glycan array binding signal (z-score)", "setting": "[19]", "value": -0.1}, {"measurement": "glycan array binding signal (z-score)", "setting": "[20]", "value": -0.075}, {"measurement": "glycan array binding signal (z-score)", "setting": "[21]", "value": -0.082}, {"measurement": "glycan array binding signal (z-score)", "setting": "[22]", "value": -0.088}, {"measurement": "glycan array binding signal (z-score)", "setting": "[23]", "value": -0.087}, {"measurement": "glycan array binding signal (z-score)", "setting": "[24]", "value": -0.078}, {"measurement": "glycan array binding signal (z-score)", "setting": "[25]", "value": -0.085}, {"measurement": "glycan array binding signal (z-score)", "setting": "[26]", "value": -0.066}, {"measurement": "glycan array binding signal (z-score)", "setting": "[27]", "value": -0.055}, {"measurement": "glycan array binding signal (z-score)", "setting": "[28]", "value": -0.076}, {"measurement": "glycan array binding signal (z-score)", "setting": "[29]", "value": -0.086}, {"measurement": "glycan array binding signal (z-score)", "setting": "[30]", "value": -0.091}, {"measurement": "glycan array binding signal (z-score)", "setting": "[31]", "value": -0.086}, {"measurement": "glycan array binding signal (z-score)", "setting": "[32]", "value": -0.083}, {"measurement": "glycan array binding signal (z-score)", "setting": "[33]", "value": -0.095}, {"measurement": "glycan array binding signal (z-score)", "setting": "[34]", "value": -0.095}, {"measurement": "glycan array binding signal (z-score)", "setting": "[35]", "value": -0.078}, {"measurement": "glycan array binding signal (z-score)", "setting": "[36]", "value": -0.091}, {"measurement": "glycan array binding signal (z-score)", "setting": "[37]", "value": -0.021}, {"measurement": "glycan array binding signal (z-score)", "setting": "[38]", "value": -0.084}, {"measurement": "glycan array binding signal (z-score)", "setting": "[39]", "value": -0.088}, {"measurement": "glycan array binding signal (z-score)", "setting": "[40]", "value": -0.093}, {"measurement": "glycan array binding signal (z-score)", "setting": "[41]", "value": -0.086}, {"measurement": "glycan array binding signal (z-score)", "setting": "[42]", "value": -0.099}, {"measurement": "glycan array binding signal (z-score)", "setting": "[43]", "value": -0.095}, {"measurement": "glycan array binding signal (z-score)", "setting": "[44]", "value": -0.082}, {"measurement": "glycan array binding signal (z-score)", "setting": "[45]", "value": -0.09}]}
